Results reported in PubChem BioAssay AID1508623 (National Center for Advancing Translational Sciences (NCATS), 2021).
Hit rate of the full screen: of about 48,000 compounds, about 450 (0.94%) were called active. About 19% were inconclusive and are not listed. Calls follow the shape of the dose curve; as a rule, active = well fitted inhibition curve with a large enough effect; inconclusive = small, poorly fitted or top-dose-only effect; inactive = no such curve, though single readings can be large or run the other way. This is one part of the list.

test: Primary qHTS for Identification of Small Molecule Inhibitors of Huntingtin Promoter Activity; settings: HEK293 HTT promoter firefly luciferase reporter (activity 0% = vehicle and -100% = no light), 24 h; series mostly up to 57.5 µM; activity change, negative = inhibition: at the top concentration; also: nearly all actives have a fitted effect of over 50% in size
In short: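 Firefly luciferase signal from promoter-reporter HEK293 cells was scaled between vehicle (0%) and zero RLU (-100%). Compounds were tested at final concentrations of up to 57.5 uM over 24 h at 37 degrees C. PTC124 at 50 uM final served as control inhibitor.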

Activity change, negative = inhibition, inactive:
CCN(C(=O)CSc1nc2ccccc2n1Cc1ccccc1C#N)c1ccccc1 -11.5%
COc1ccc(-n2nc(C(=O)Nc3ccc(C)cn3)c3c4ccccc4n(C)c3c2=O)cc1Cl -6.79%
CCOC(=O)c1ccc(NC(=O)CSc2nnc(-c3ccncc3)n2-c2ccccc2)cc1 -9.39%
CCOC(=O)c1ccccc1NC(=O)c1cnn(-c2ccc(OC)cc2)c1C1CCN(C(=O)OC(C)(C)C)CC1 -3.21%
Cc1ccc2c(c1)c(=O)c1ccccc1n2CCCC(=O)Nc1ccc(Cl)cc1C -5.8%
CCOc1ccc(CNC(=O)c2cnc3c(C)cccn3c2=O)cc1 10.6%
N#C/C(=C\c1ccccc1F)c1nc2ccccc2c(=O)[nH]1 -1.42%
CC(=O)c1ccc(NC(=O)CN2C(=O)CCc3cc(S(=O)(=O)N4CCC(C)CC4)ccc32)cc1 -17.6%
COc1cccc(NC(=O)CCc2nnc3n(CC(C)C)c(=O)c4ccccc4n23)c1 -0.484%
O=C(Nc1ccc(Cl)c(C(F)(F)F)c1)c1cc2nc(-c3ccc4c(c3)OCO4)cc(C(F)(F)F)n2n1 -11.8% [at 11.5 µM]
COc1ccc(NC(=O)CSc2n[nH]c(-c3ccccc3)n2)cc1Cl -17.2%
O=C(Nc1ccccc1F)c1oc2ccccc2c1NC(=O)C12CC3CC(CC(C3)C1)C2 -3.71%
CCOC(=O)c1noc2nc(C)n(CC(=O)Nc3ccc(Br)cc3C)c(=O)c12 -9.84%
COc1ccc(OC)c(-n2cnc3cc(C(=O)NCCc4ccccc4)ccc32)c1 6.85%
CC1(CN2CCC(n3c(=O)[nH]c4ccccc43)CC2)OCc2ccccc2-n2cccc21 (stereo not given)
Cc1ccc(CN(C(=O)c2ccc([N+](=O)[O-])cc2)c2ccccn2)cc1 -0.987%
NC(=O)c1noc([C@H](CCCC2CCCCC2)CC(=O)NO)n1 15.1%
CC(C)OC(=O)c1c(NC(=O)c2cc3nc(-c4ccccc4)cc(C(F)(F)F)n3n2)sc2c1CCCC2 -12.7%
Cc1ccc(-c2nnc3ccccc3c2C(=O)Nc2cccc(C(F)(F)F)c2)cc1 26.8%
CC1=C(C(=O)Nc2ccc(C)cc2C)C(c2ccc[nH]2)n2ncnc2N1 (stereo not given) -12.9%
CSc1nnc2c(n1)OC(c1cccc(O)c1Cl)Nc1ccccc1-2 (stereo not given) 4.57%
N#Cc1cc2c(=O)n3ccccc3nc2n(-c2nnc(SCc3ccccc3F)s2)c1=O -7.19%
CCOC(=O)C1CCCN(S(=O)(=O)c2ccc3c(c2)N(C)C(=O)CC(=O)N3C)C1 (stereo not given) -12.2%
O=C(Cn1ncc2c3ccccc3n(Cc3ccc(Cl)cc3)c2c1=O)NC1CCCCCC1 2.11%
CCc1ccc(CNC(=O)c2cnc3sc(N(CC)CC)nn3c2=O)cc1 -9.48%
COCCCNC(=O)Cn1c(=O)n(-c2ccc(Cl)cc2)c(=O)c2c3c(sc21)CCCCC3 -11.6%
COc1ccc(CCNC(=O)CN2C(=O)COc3ccc(S(=O)(=O)N4CCCCCC4)cc32)cc1OC -17%
CCOc1ccc(-n2c(=O)c3sc4ccccc4c3n(Cc3ccc(F)cc3)c2=O)cc1 -3.84%
Cc1ccc(NC(=O)c2ccc(CN3CC(=O)N4CCCCC4C3=O)cc2)cc1C (stereo not given) -20.3%
CCc1ccccc1NC(=O)C(=O)NCCc1sc(-c2cccc(C)c2)nc1C -18.3%
CC(C)c1cnc2c(c1SCC(=O)Nc1cccc([N+](=O)[O-])c1)c(=O)n(C)c(=O)n2C -25.6%
CCn1c(SCC(=O)Nc2ccc(C)c(C)c2)nnc1-c1nonc1NC(C)=O -20.4%
COCCCNc1ncnc2c1nnn2C 9.61%
CCCCC(CC)Cn1c(Oc2ccccc2)nc2c1c(=O)n(C)c(=O)n2C (stereo not given) -15.9%
Cc1[nH]c2c(C)cccc2c1CCNC(=O)c1cc2ccccc2oc1=O -1.5%
COCCn1c(SCC(=O)c2c[nH]c3ccccc23)nc2cc(C(=O)NCC(C)C)ccc2c1=O -25.5%
Cc1ccc(O)c(NC(=O)c2nc3nc(C)cc(C(F)F)n3n2)c1 3.5%
O=c1oc2ccc3ccccc3c2cc1-c1nnc(Nc2cc(C(F)(F)F)ccc2Cl)s1 18.4%
O=S(=O)(c1cccc(Cl)c1)c1nnn2c1nc(NC1CCCC1)c1sccc12 -25.2%
CCc1ccc(CNC(=O)c2cc3c(s2)-c2ccccc2OC3)cc1 -17.9%
Cc1nc(N2CCCC2)ncc1C(=O)NCc1ccccc1Cl 0.0113%
COc1cc(NC(=O)CSc2nc3nc(C)c(Cc4ccccc4)c(C)n3n2)cc(OC)c1OC -34.6%
CC[C@H](C)n1cc(C)c2c(C(=O)NCc3c(C)cc(C)[nH]c3=O)cc(-c3ccc(N4CCNCC4)nc3)cc21 -3.81%
Nc1cccc(S(=O)(=O)N2CCCN(S(=O)(=O)c3ccc4c(c3)OCCO4)CC2)c1 -8.97%
COc1ccc(CC(=O)Nc2sc3c(c2C(=O)Nc2ccc(C)cc2)CCCCC3)cc1 2.63%
CCc1cccc(C)c1Nc1c(-c2cccc(O)c2)nc2sccn12 -9.56%
Cc1cc(NC(=O)CSc2ncc(C(=O)Nc3ccccc3)c(=O)n2C)no1 -11.4%
O=C(NCc1ccccn1)c1nn(-c2ccccc2Cl)nc1CO -1.37%
Cc1ccccc1NC(=O)c1ccc(CNS(=O)(=O)c2ccc3c(c2)C(C)(C)C(=O)N3C)cc1 -15.8%
COc1ccccc1CNC(=O)C(Cc1ccccc1)NS(=O)(=O)c1ccc2c(c1)CCN2C(C)=O (stereo not given) -9.53%
CCN(CC)C(=O)C1=C(C)Nc2nc3ccccc3n2C1c1ccc(Cl)cc1 (stereo not given) -0.041%
CSc1ncc(C(=O)Nc2cccc(Cl)c2C)c(-c2ccccc2)n1 7.69%
CC(=O)OC/C=C(C)/C=C/C=C(C)/C=C/C1=C(C)CCCC1(C)C 4.53%
Cc1ccc(Cl)cc1N(C)C(=O)c1cc2ccc3cccnc3c2[nH]1 3.78%
CCNC(=O)CC1C(=O)N(c2ccc(F)cc2)C(=O)N1Cc1ccc(C)cc1 (stereo not given) -7.1%
CCOc1ccccc1C(=O)NCC(c1ccc(N(C)C)cc1)N1CCCC1 (stereo not given) -5.48%
CSc1ccc(CCNC(=O)c2ccc3c(c2)c(C)c(C)n3Cc2ccc(F)cc2)cc1 -29.4%
CCn1c(CN2CCN(C)CC2)nc2cc(NC(=O)c3cc(OC)c(OC)c(OC)c3)ccc21 12.8%
CCOC(=O)CNC(=O)Cn1nc(N2CCN(c3ccccc3)CC2)ccc1=O 1.53%
CC(=O)c1cccc(NC(=O)c2cc(-c3ccc4c(c3)OCCO4)on2)c1 -1.74%
